The source gives no read counts; variants with many changes may rest on few reads.
B1: OR4K15 (parent)
chain: GUUAACGGUCAUAGGCCAUGGAAACUAGGAGCACCAUUUCGCUGCCAGUGAAGAAAUGAACAAAGAAAAUCUGGGCCAGGCAGGCAUCAAAAGAAAUAGUCUUGCGCUCAACCAGAAAGUCUGUAAUCAUUUUAAGGGUA

Variants of: B1
Experiment: self-cleavage, relative activity (ratio to wild type); higher = more cleavage; in vitro, sequencing; the parent is a self-cleaving ribozyme

Row | Variant | self-cleavage
1 | A55G A78U A126G | 0.31
2 | A47U A59G A69U G84C | 0.2
3 | U38C A110U U122A | 1.24
4 | A64G A67G A78U U120C | 0.27
5 | A56G A96G A111G A140G | 0.03
6 | A13G A62G A114G A134G | 0.18
7 | U9C A64G A92G U97C | 1.43
8 | A23U A51C A117G | 1.19
9 | A62C A94G A111G | 0.03
10 | A24G A47G U70C A94G A116G | 1.68
11 | A24G U43A A116G | 1.26
12 | U37C A59U U72C | 0.31
13 | A68G A89G U100C | 2.51
14 | U2C A27C A126U | 0.61
15 | A18G U49G A52G U103C A116G U122G G138A | 0.21
16 | A47G A67G A82G U120C | 0.27
17 | A60G U70A A82U | 0.24
18 | U43C A92G U103C | 0.4
19 | U38C U72C U122C | 0.16
20 | C35A A36G U100C C113A | 0.03
21 | A52G A63G A67G | 1.77
22 | A4G U19C C25U A111G | 0.15
23 | A55G A67G A86G A125G | 0.06
24 | U19C A23G U57G U132A | 0.92

Row | Variant | self-cleavage
25 | U37C G93U C128U | 2.12
26 | A52U A126U A129G | 1.2
27 | U26C A51G G83A | 1.26
28 | U37G U87C A98G U103C | 0.09
29 | A33G A51G A68G A91G A92G | 0.29
30 | A62G A117G U132C | 2.37
31 | A11G A27G A33G A116G | 0.21
32 | U9G C16G A86G U97A A114G U132C | 0.51
33 | G65A U120C U124C | 0.2
34 | U3C A56G G83A A90G A114U | 0.09
35 | A4G U38C A125G | 0.57
36 | U3C A13G A18G A64G C77U | 1.04
37 | U9C A117G A118G U139A | 1.53
38 | A11G A62G A94G A118G | 1.11
39 | A24G A60G G79A | 0.11
40 | U9A C45G A90U | 1.07
41 | C6U U9C A60G A64U A91G | 0.82
42 | A4G A51G A60C | 1.4
43 | A27C A52G A111G | 0.03
44 | A23G U39C U43C A52G A114U | 0.02
45 | A5G G7U A86G | 0.94
46 | U49C A95G A118G U139C | 1.3
47 | A4G A23G U100C A126U | 0.82
48 | A22G U37C A92G G106U | 0.03

Row | Variant | self-cleavage
49 | A4G A64U A91G | 1.25
50 | A5G A68G A78G | 0.37
51 | U2C U43A A135G | 1.27
52 | A5C A67G U120C | 0.6
53 | A11G A18U U100A U103C | 0.1
54 | A18U G21A A82G C85U A126U | 0.29
55 | A18C U19C A22U A64G | 1.25
56 | U57C A68U A69G A118U | 0.34
57 | A13U A68G U70C A86C U139C | 0.42
58 | A52U U72A G84A | 0.27
59 | A63G U72A U130C U133C | 0.2
60 | U2C G74A A86G A125G A135U | 0.04
61 | A62U A66G A95G | 1.89
62 | U43C A116U U131C | 0.33
63 | U26A A56C G74A A90G U103C U122C A126G U127C | 0
64 | A4U A18C U26A A114U | 0.1
65 | U72C A96G A111U U122A | 0.04
66 | U43A A62G A125C | 0.9
67 | A24G A36G C61A A67G C109U | 0.48
68 | A27G U43C U102C U122C | 0.82
69 | U39C A92G A114U | 0.04
70 | U43C A59G A67G U103C | 0.49
71 | A24G A59G U127C | 1.16
72 | A94G A117G U120C U130C G137A | 0.37

Row | Variant | self-cleavage
73 | A5C A23G A90G | 1.02
74 | U2C U43C A82G A96G | 0.47
75 | A56C A67G A126U | 0.59
76 | A56G U108A A118G | 0.02
77 | A52G G65A A111G A126G | 0.01
78 | A52G U124C A125U | 0.86
79 | U2C A52C A56G | 1.09
80 | U49A U87G G104U A140G | 0.02
81 | A64G U102C A111U A114C U127C | 0.01
82 | C17U C88A C109A | 0.18
83 | A23G A56G A116U | 0.34
84 | U43C A67G U72C A78G U87A U103A G136A A140G | 0.04
85 | U2A A52G U70C | 1.3
86 | G7A A69G A92G | 2.49
87 | A24G U57A U70A A114G G137A | 0.15
88 | A47G A55G A96G A116G | 0.22
89 | U19A A33U A59U A117U | 1.6
90 | U9C U39C A52G A62G A82G | 0.65
91 | A60G A63G A90G A126U | 0.54
92 | A18U A60U A68G | 1.28
93 | U9C A11U A36C | 1.1
94 | U39C A55G A126C | 1.09
95 | U43A U87C A89U | 1.74
96 | A63G A96G C105U A110G | 0.1

Row | Variant | self-cleavage
97 | A18G A27G U38C A111G A129G | 0.05
98 | G8C U9C U39C | 1.62
99 | A22G A56G A59G U70C A111G | 0.03
100 | A18G A91G A140G | 1.21
101 | A47G A56G A126U | 0.67
102 | U9A A22U A60G C76U U122A | 0.04
103 | A18G U19C A52G A117G A135G | 0.87
104 | A11G A24G U87A | 1.15
105 | A55G A62C A82G A94G | 0.46
106 | A11G A82U U130C | 0.18
107 | U37C A55G A67G | 1.54
108 | A5G U39C U108C A126U | 0.02
109 | A59G A60C U122C | 1.42
110 | A82U A95G U100C | 1.2
111 | A11G U19A A56G A90U U122A | 1.47
112 | U19A U39A U49C A59G A63G A92U | 1.4
113 | A24U U43C A67G U133A | 2.63
114 | A18G U39C A68G U87C | 1.26
115 | C17U A126G U139C A140U | 0.3
116 | A24U A68G A116G U120C | 0.21
117 | A5U A51G A52G U87C | 1.31
118 | U2C U39C U43A | 0.74
119 | A22U G80A A118G | 0.11
120 | A78G A94G U127C U131C | 0.18

Row | Variant | self-cleavage
121 | A68G A92G U100A A117G | 0.6
122 | A4U C25A A90G | 1.42
123 | C32U A69G U124C | 0.85
124 | U26C A27G U43C A51U A54G | 1.53
125 | A11U A22G A59U A117G | 1.02
126 | A55G A56C U122A | 1.97
127 | A11U A24G U37C A64C A78G | 0.23
128 | A11G A114C U122C | 0.03
129 | A18G U120C U127C | 0.32
130 | U37A G41A U43A U131G | 1.66
131 | A51G A126U U132C | 1.04
132 | U43C U87C C113U | 0.02
133 | U2A G50A A60G U72A A114G | 0.06
134 | A54G C77U C107G U131C | 0.01
135 | U26C A63C U97C | 1.8
136 | A96G A98G C121A | 1.23
137 | A30G U57C U103C | 0.5
138 | A13U U37C G50A A86U | 1.35
139 | A23G A63G U97C A114G | 0.11
140 | A18G U87C A89G | 1.44
141 | A11G A51G A69U A129G | 1.34
142 | A47U A55G U120C | 0.28
143 | G53A U70C A111G | 0.04
144 | A55G A114G U120A | 0.06

Row | Variant | self-cleavage
145 | A23G A47G U102C | 1.18
146 | A33G A54U U124A | 0.55
147 | A24U A47G A90G A110G | 0.09
148 | A4G A36U G53A A59G A68G A95G | 1.24
149 | U37C A52G G53A U131C U132C | 0.32
150 | G7A A24G A78U A95G A110G | 0.09
151 | A23G C85U A117G | 1.02
152 | U57C A91G U139A | 0.94
153 | A33G G99C U100C | 0.13
154 | A67G G104A A117G A134G | 0.01
155 | A47U A89G A117G A134G | 0.47
156 | A11G U39A U72A U124C | 0.09
157 | A24C A63G U130C | 1.92
158 | C25U A52G A60U U108C | 0
159 | U9C U19C A56G A94G | 0.8
160 | A5G C34U C77U A89G | 1.42
161 | A27U A69G A78U U87C U108C | 0
162 | U38C A47U A59G A140G | 0.93
163 | G8A U19C U39C A90G A91G | 0.49
164 | A24G U57C C107U | 0.02
165 | A54U A68G U72C | 0.26
166 | A4G U49C A68G A111U | 0.31
167 | U19C A33G U97C | 0.39

Source: the RNAGym collection of RNA variant scans (doi:10.7554/elife.90254)
